Results published in article PMC5589878, “Development of Fluorescent Probes that Target Serotonin 5-HT2B Receptors” (Scientific Reports, 2017).
pEC50: −log10 of the molar value.

Assays:
5-HT2B receptors [1] = biological target: T1, 5-HT2B receptors (Homo sapiens, UniProt P41595); experiment: Functional assay of IPs accumulation at human 5-HT2B receptors; format: cell-based; settings: CHO-K1-5-HT2B cells
5-HT2B receptors [2] = biological target: T1, 5-HT2B receptors; experiment: Labelling of 5-HT2B receptors in live CHO-K1-5-HT2B cells (fluorescence microscopy, plate reader, confocal); format: cell-based
5-HT2B receptors [3] = biological target: T1, 5-HT2B receptors; experiment: Radioligand competition binding assay at human 5-HT2B receptors; settings: [3H]LSD, membranes from CHO-K1-5-HT2B cells

T1 sequence (P41595 whole entry): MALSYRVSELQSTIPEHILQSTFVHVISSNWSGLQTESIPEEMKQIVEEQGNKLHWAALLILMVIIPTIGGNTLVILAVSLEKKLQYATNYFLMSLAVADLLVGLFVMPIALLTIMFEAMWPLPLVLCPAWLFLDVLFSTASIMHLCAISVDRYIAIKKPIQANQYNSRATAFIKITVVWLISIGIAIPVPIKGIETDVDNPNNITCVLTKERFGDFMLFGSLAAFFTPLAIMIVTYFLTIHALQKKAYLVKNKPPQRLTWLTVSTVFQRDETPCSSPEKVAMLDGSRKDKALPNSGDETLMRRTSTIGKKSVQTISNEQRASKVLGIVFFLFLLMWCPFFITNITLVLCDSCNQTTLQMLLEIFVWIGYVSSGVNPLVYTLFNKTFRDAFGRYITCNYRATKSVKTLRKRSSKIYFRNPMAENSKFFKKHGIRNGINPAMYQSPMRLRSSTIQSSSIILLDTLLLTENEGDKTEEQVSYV

Compound	Functional data at 5-HT2B % at 1 μM (5-HT2B receptors [1])	pEC50 (5-HT2B receptors [1])	further results
COc1cc(CC(C)N)c(OCCCCCCCCCCC(=O)NCCCNS(=O)(=O)c2cccc3c(N(C)C)cccc23)cc1I (stereo not shown) [10c, 11-(2-(2-aminopropyl)-5-iodo-4-methoxyphenoxy)-N-(3-((5-(dimethyl-amino)naphthalene)-1-sulfonamido)propyl)undecanamide]	31%		
COC(=O)c1c(C(=O)OCCCNC(=O)CCCOc2cc(I)c(OC)cc2CC(C)N)c2cc3ccccc3cc2c2cc3ccccc3cc12 (stereo not shown) [12g, 6-(3-(4-(2-(2-aminopropyl)-5-iodo-4-methoxyphenoxy)butanamido)pro-pyl) 7-methyl pentaphene-6,7-dicarboxylate]		6.59	
CCCCCCC(CCCCCC)N1C(=O)c2ccc3c4ccc5c6c(ccc(c7ccc(c2c37)C1=O)c64)C(=O)N(CCCNC(=O)CCCOc1cc(I)c(OC)cc1CC(C)N)C5=O (stereo not shown) [12h, 4-(2-(2-aminopropyl)-5-iodo-4-methoxyphenoxy)-N-(3-(1,3,8,10-tetraoxo-9-(tridecan-7-yl)-3,8,9,10-tetrahydroanthra[2,1,9-def:6,5,10-d′e′f′]diisoquinolin-2(1H)-yl)propyl)butanamide]		5.38	
CCN(CC)c1ccc2c(-c3ccccc3C(=O)NCCC(=O)NCCC(=O)NCCCOCCOCCOCCCNC(=O)CCCOc3cc(I)c(OC)cc3CC(C)N)c3ccc(=[N+](CC)CC)cc-3oc2c1 (stereo not shown) [12i, N-(9-(2-((26-(2-(2-aminopropyl)-5-iodo-4-methoxyphenoxy)-3,7,23-trioxo-12,15,18-trioxa-4,8,22-triazahexacosyl)carbamoyl)phenyl)-6-(diethylamino)-3H-xanthen-3-ylidene)-N-ethylethanaminium]			location of probe fluorescence in CHO-K1-5-HT2B cells (confocal microscopy) (5-HT2B receptors [2]; 3 μM, 10 min incubation at 37 °C): mainly located in intracellular compartments; specific labelling of 5-HT2B receptors in CHO-K1-5-HT2B cells versus parental CHO-K1 cells (5-HT2B receptors [2]; live cells, high content fluorescence imaging, at least three concentrations): concentration-dependent specific labelling
3-(2-(2-(2-(2-aminopropyl)-5-iodo-4-methoxyphenoxy)ethoxy)ethoxy)-N-(3-((5-(dimethylamino)naphthalene)-1-sulfonamido)propyl)propanamide [10d]	5%		Binding at 5-HT2 receptors % at 1 μM 5-HT2B (5-HT2B receptors [3]): 37.4%
